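48-hour exposure; five concentrations; linearly interpolated endpoints. GI50 marks 50% less growth. TGI denotes the concentration required for complete inhibition of growth.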 Bridge positions count the residues as written; N and C are the ends. Square brackets hold non-standard residues; d marks the D form. Peptide text beside a SMILES is read from it. I, II: the chains in the order shown. * marks the point of attachment. Quinoxaline2carbonyl = O=C(c1cnc2ccccc2n1)*; NMeV = CN[CH](C(=O)O)C(C)C; NMeC = CN[CH](CS)C(=O)O
tested on: NCI-H322M lung; test: NCI-60 cell line screen, 48 h

| Structure (SMILES) | TGI [µM] | GI50 [µM] |
| --- | --- | --- |
| Cc1cc(N(CCC#N)CCC#N)ccc1/C=C1N=C(/C=C\c2ccccc2)N(c2ccc(Cl)cc2)C\1=O | > 100 |  |
| COc1ccc(C2[C@@H](Cl)C(=O)N2c2cc(OC)c(OC)c(OC)c2)cc1Cl (some centres not stated) | 28.1 | 4.47 |
| Nc1ccccc1SCc1csc(-c2ccc(Cl)cc2)n1 | > 100 |  |
| CC1OC(O[C@H]2/C=C/C=C/C=C/C=C/C=C/C=C/C=C/[C@H](C)[C@@H](O)[C@@H](C)[C@H](C)OC(=O)CC(O)CC(O)CCC(O)C(O)CC(O)C[C@]3(O)C[C@H](O)C(C(=O)O)C(C2)O3)C(O)[C@H](N)C1O (some centres not stated) | 8.42 | 2.92 |
| CCOC1=C2N=C(Cc3ccccc3F)N=C2C(=O)c2ccccc21 | > 100 |  |
| CC1OC(OC2C(OC(=O)[C@@H]3CC(C)(C)C[C@H]4C5=CC[C@@H]6[C@@]7(C)C[C@H](O)[C@H](OC8OC(CO)C(O)C(O)C8O)[C@@](C)(CO)[C@@H]7[C@H](O)C[C@@]6(C)[C@]5(C)CC[C@@]34C)OCC(O)C2O)C(O)C(O)C1O (some centres not stated) | > 7.5 |  |
| CC1=NN(C(=O)CSc2nc3ccc(I)cc3c(=O)n2Cc2ccccc2)C(=O)C1 | > 100 |  |
| c1ccc(P(=Nc2ccccc2N=P(c2ccccc2)(c2ccccc2)c2ccccc2)(c2ccccc2)c2ccccc2)cc1 | > 100 |  |
| COc1ccc2c(c1)CCN1CCc3cc(OC)c(OC)cc3CC21 (configuration not stated) | > 100 |  |
| COC(=O)C1=C(OC(=O)c2ccccc2)C(C(=O)OC)[C@]2(O)[C@@H](C(=O)OC)[C@H]1C[C@@H](c1ccccc1)[C@@H]2C(=O)OC (some centres not stated) | 58 |  |
| CN(C)CC1CCCC1=O (configuration not stated) | 39.5 |  |
| OC(c1ccc(-c2ccccc2)cc1)C(F)(F)c1nc2ccccc2o1 (configuration not stated) | > 100 |  |
| CN1COc2c(n(C)c(=O)[nH]c2=O)C1 | > 100 |  |
| N/N=C1\CC(=O)NC(=O)N1 | > 100 |  |
| Cc1ccc(S(=O)OC2C3CC4CC(C3)CC2C4)cc1 (configuration not stated) | > 100 |  |
| COc1cc(/C=C/[N+](=O)[O-])cc(Br)c1OC | 29.4 | 13.5 |
| O=C1NC(=O)C(c2cccc(Cl)c2)=C1Nc1ccc(O)c(Cl)c1 | > 25 | 17.8 |
| O=P1(Oc2ccccc2)C(c2ccccc2)C(c2ccccc2)=NN1c1ccccc1 (configuration not stated) | 62.3 |  |
| Cc1ccc2nc(NC(=O)/C(Cc3nc4ccc(Cl)cc4[nH]c3=O)=N\NC(C)(C)C)sc2c1 | > 100 |  |
| Cc1csc2nc(-c3ccc(Cl)c([N+](=O)[O-])c3)c(/C=N/N=C(N)N)n12 | 3.19 |  |
| CC1(C)OC2C(=O)C=C(COCc3ccccc3)C2O1 (configuration not stated) | > 100 |  |
| CCOc1cc(NC(C)=O)ccc1C(=O)NN1C(=O)C(Cl)C1c1ccco1 (configuration not stated) | 30.4 |  |
| CCOC(=O)[C@H](Cc1ccc(O)cc1)N=C1[C@H]2CCC[C@]1(O)[C@@](C)([N+](=O)[O-])C2 | > 100 |  |

| Structure (SMILES) | TGI [µM] | GI50 [µM] |
| --- | --- | --- |
| O=C(CSC1=NCCN1)Nc1ccccc1 | > 100 |  |
| CCN1C(=O)N(CC)C2C1NN=c1s/c(=C3\C(=O)N(CCc4ccccc4)c4ccccc43)c(=O)n12 (configuration not stated) | > 26.5 | 1.41 |
| CN(C)c1ccc(N=Nc2ccncc2)cc1 | > 100 |  |
| COC(=O)CC1NC(=O)C1C1(C)OCCO1 (configuration not stated) | > 100 |  |
| O=C(Oc1cccnc1)c1ccsc1Nc1ccnc(C(F)(F)F)c1 | 25.4 | 11.5 |
| CC1=CC(=O)C(O)C2(C)C1CC(O)C13COC4(C)C(OC(=O)C41)C(O)C23 (configuration not stated) | 46 | 12.7 |
| COc1ccc(C(=O)N2c3ccccc3Sc3ccccc32)c(OC)c1 | > 100 | 0.501 |
| CCC1(O)C(=O)OCc2c1cc1n(c2=O)Cc2cc3cc(N)ccc3nc2-1 (configuration not stated) | 3.97 |  |
| Cn1cncc1CC1COC(=O)C1C(O)c1ccccc1 (configuration not stated) | > 100 |  |
| Cc1c(C2=C(c3cn(C)c4ccccc34)C(=O)NC2=O)c2ccccc2n1C | > 25 | 17.7 |
| Cc1ccc(NC(=O)c2ccccc2C(=O)O)cc1C | > 100 |  |
| Cc1ccc(CC(C)N)cc1 (configuration not stated) | > 100 |  |
| Cc1ccc2c(=O)cc(-c3ccc(-c4ccccc4)s3)[nH]c2n1 | > 100 |  |
| CSCCC(NC(=O)Cc1ccc(C(=O)c2ccccc2)cc1)C(=O)O (configuration not stated) | > 100 |  |
| COc1ccc(C(Cl)=C(c2ccc(OCCN(C)C)cc2)c2ccc(OCCN(C)C)cc2)cc1 | 7.28 |  |
| CCOP(=O)(OCC)C(C)(CC)NC (configuration not stated) | > 100 |  |
| Brc1c(C#CCC2CCCCC2)ccc(C#CCC2CCCCC2)c1Br | > 100 |  |
| CC1(C)C2CCC13CS(=O)(=O)N1O[C@]13C(=O)O2 (some centres not stated) | > 100 |  |
| O=C(Nc1cccc(F)c1)c1cc2ccc(O)cc2oc1=Nc1ccccc1F | 8.18 |  |
| CC1NC(=O)C(NC(=O)c2cnc3ccccc3n2)COC(=O)C(C(C)C)N(C)C(=O)C2CSSCC(C(=O)N(C)C(C(C)C)C(=O)OCC(NC(=O)c3cnc4ccccc4n3)C(=O)NC(C)C(=O)N2C)N(C)C1=O (configuration not stated) (I: Quinoxaline2carbonyl-SA[NMeC][NMeV] / II: Quinoxaline2carbonyl-SA[NMeC][NMeV]; ester I:1-II:C, I:C-II:1; disulfide I:3-II:3; configuration not given here) | 1.67 |  |
| COc1ccc(OC)c(Cn2cc3c(c2)-c2oncc2CC3)c1 | > 100 | 3.61 |
| Cc1ccc(/C(O)=C/C(=O)C(=O)NN=C(c2ccccc2)c2ccccc2)cc1 | > 100 |  |
| COc1ccc(OC)c(C2SCC(=O)N2NC(=O)C(O)c2ccccc2)c1 (configuration not stated) | > 100 | > 100 |
